In all, about 18,000 sequences were measured (“TetR repression strength (sort-seq, GFP reporter)”: median about 0.23, highest 2% from about 0.68 on). This is one part of the list.

The test deals with TetR (class B, Tn10) (UniProt P04483). Nature of the test: TetR repression strength (sort-seq, GFP reporter) (relative to tetO2 = 1); higher = stronger repression. The note with it: E. coli. Summed up: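 Escherichia coli SIG10-MAX cells carried a low-copy plasmid library in which eight operator positions were randomized between a constitutive promoter and sfGFP, and TetR was expressed constitutively. After 5 h of growth at 37 °C in LB with 50 µg/mL chloramphenicol, 10^6 cells were FACS-sorted into 13 fluorescence bins, and each bin was Illumina-sequenced. Repression strength was the top bin index plus one minus the read-weighted mean bin, divided by the value for the unaltered operator. Across three independent transformations, only library members with ≥30 reads in every replicate and a CV ≤0.5 were averaged.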
Chain of UniProt P04483 (P04483 whole entry): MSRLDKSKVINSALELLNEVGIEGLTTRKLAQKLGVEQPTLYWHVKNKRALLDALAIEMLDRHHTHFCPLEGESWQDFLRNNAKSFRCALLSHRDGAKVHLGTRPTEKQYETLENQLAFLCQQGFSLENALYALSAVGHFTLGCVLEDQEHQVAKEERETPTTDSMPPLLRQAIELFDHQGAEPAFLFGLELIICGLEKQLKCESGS
For the sequence TCCCTACCAGTGAAAGAGA, the TetR repression strength is 0.415. Then TCCCTTATAGTATCAGAGA, with 0.186; and TCCCGGTAAGTACGTGAGA, with 0.217; and TCCCCATGAGTTGTTGAGA, with 0.306.

In turn, TCCCATACAGTGGTGGAGA showed a TetR repression strength of 0.171. With TCCCATGTAGTGATAGAGA the figure was 0.265. With TCCCGGCAAGTTTTTGAGA the figure was 0.238; with TCCCCAGTAGTCTGAGAGA, 0.0196. Then TCCCACGTAGTGGCGGAGA, with 0.163; and TCCCAAACAGTGAATGAGA, with 0.232; and TCCCAACTAGTCGTCGAGA, with 0.214. In the case of TCCCTATCAGTGAGAGAGA, the TetR repression strength came out at 0.948. Then TCCCCGCGAGTAGCAGAGA, with 0.13; and TCCCGCTAAGTTAGGGAGA, with 0.286; and TCCCAACGAGTGTCTGAGA, with 0.314. Then TCCCAAGGAGTGTTTGAGA, with 0.227; and TCCCATTGAGTGGTTGAGA, with 0.11. Sequence TCCCTCTGAGTGCCCGAGA yielded a TetR repression strength of 0.261. With TCCCTATCAGTGCATGAGA the figure was 0.577. Then TCCCCCGAAGTCAGAGAGA, with 0.179; and TCCCGTTAAGTGACAGAGA, with 0.328. With TCCCTGCCAGTGTGGGAGA the figure was 0.127. Sequence TCCCGACCAGTTTATGAGA displayed a TetR repression strength of 0.311. Sequence TCCCAAGGAGTATTAGAGA yielded a TetR repression strength of 0.217. TCCCGGTGAGTGCTGGAGA had a TetR repression strength of 0.305. Turning to TCCCATTGAGTTGATGAGA, the TetR repression strength is 0.304. Consider TCCCGGCGAGTGGATGAGA, for which the TetR repression strength was 0.274. With TCCCGCATAGTTTGCGAGA the figure was 0.0306; with TCCCGTCTAGTGGAGGAGA, 0.155; with TCCCGAGCAGTGATGGAGA, 0.371. With TCCCCGTGAGTAACCGAGA the figure was 0.104; with TCCCTAGAAGTTATGGAGA, 0.315. With TCCCCGGCAGTATAGGAGA the figure was 0.242. Regarding TCCCTGGTAGTGGCTGAGA, the TetR repression strength stood at 0.365. Then TCCCTGAGAGTCGGGGAGA, with 0.0822; and TCCCTCGCAGTCAAAGAGA, with 0.164; and TCCCCGCGAGTGGGTGAGA, with 0.109. Then TCCCCTACAGTTTCTGAGA, with 0.351; and TCCCGGACAGTGCCGGAGA, with 0.167; and TCCCGCCCAGTCTTGGAGA, with 0.242.

Sequence TCCCGTGGAGTTCTCGAGA showed a TetR repression strength of 0.13. Then TCCCTAGTAGTAACTGAGA, with 0.259. TCCCGAGGAGTGCCGGAGA yielded a TetR repression strength of 0.195. In turn, TCCCCAATAGTGTTTGAGA displayed a TetR repression strength of 0.311. TCCCGCATAGTTCTCGAGA returned a TetR repression strength of 0.242. Then TCCCGAAGAGTTGAGGAGA, with 0.0868; and TCCCATCAAGTAGGTGAGA, with 0.145; and TCCCGCGGAGTCGATGAGA, with 0.207. Regarding TCCCGGTCAGTGAAGGAGA, the TetR repression strength came out at 0.236. TCCCGTCTAGTTGAGGAGA returned a TetR repression strength of 0.24. Then TCCCCGCAAGTTTTCGAGA, with 0.306.

Take TCCCTTGGAGTCTGGGAGA: the TetR repression strength was found to be 0.224. Then TCCCGGTGAGTAGGAGAGA, with 0.109. Then TCCCCCGAAGTATGCGAGA, with 0.215; and TCCCACCTAGTGAGAGAGA, with 0.396. With TCCCGCTGAGTCAATGAGA the figure was 0.333; with TCCCTTCCAGTGATAGAGA, 0.668; with TCCCTGGGAGTCTAAGAGA, 0.0478. Take TCCCTAATAGTTGCCGAGA: the TetR repression strength was 0.275. Then TCCCTGGGAGTAGGGGAGA, with 0.287. With TCCCGTAGAGTTCTAGAGA, the TetR repression strength was 0.202.

The sequence TCCCTGTTAGTGTAGGAGA showed a TetR repression strength of 0.153. Then TCCCCATTAGTGCAGGAGA, with 0.302. Then TCCCAATGAGTTTGGGAGA, with 0.256. Then TCCCTACGAGTAGTGGAGA, with 0.192; and TCCCCCACAGTCACAGAGA, with 0.27.

TCCCTGTGAGTGCTGGAGA returned a TetR repression strength of 0.309. Then TCCCGACAAGTGGAGGAGA, with 0.113; and TCCCGCGTAGTACGGGAGA, with 0.334; and TCCCTGGAAGTGAGGGAGA, with 0.0391. With TCCCTTTAAGTGTCGGAGA the figure was 0.319. Then TCCCGGGAAGTTGGCGAGA, with 0.238; and TCCCGGCTAGTACTCGAGA, with 0.0814. In turn, TCCCTTACAGTGGTCGAGA displayed a TetR repression strength of 0.266.

In turn, TCCCAGGAAGTCGAAGAGA gave a TetR repression strength of 0.24. In turn, TCCCTCAAAGTGAGCGAGA registered a TetR repression strength of 0.00441. Then TCCCACATAGTGGGCGAGA, with 0.147; and TCCCGAACAGTGTGCGAGA, with 0.108.

Turning to TCCCGTATAGTATAAGAGA, the TetR repression strength was 0.0424. Then TCCCGGGGAGTGACTGAGA, with 0.143. Sequence TCCCTGTGAGTACCGGAGA gave a TetR repression strength of 0.138. Then TCCCAGAGAGTTGGGGAGA, with 0.14; and TCCCATCAAGTATAAGAGA, with 0.104; and TCCCCCGTAGTATGCGAGA, with 0.284.

Sequence TCCCGGAAAGTTGAAGAGA showed a TetR repression strength of 0.33. As to TCCCAGAGAGTGGATGAGA, the TetR repression strength was determined as 0.235. Then TCCCTTGCAGTAGTAGAGA, with 0.244; and TCCCTTCTAGTAGCAGAGA, with 0.419; and TCCCGTCTAGTATACGAGA, with 0.243. With TCCCGAACAGTATTCGAGA the figure was 0.246.

For the sequence TCCCTCCCAGTAATGGAGA, the TetR repression strength amounted to 0.325.

Turning to TCCCTATAAGTTAGAGAGA, the TetR repression strength was determined as 0.244. With TCCCGGAGAGTGAGTGAGA the figure was 0.225; with TCCCCGCTAGTGGTCGAGA, 0.41; with TCCCGTACAGTCGAGGAGA, 0.0576. On to TCCCGTAAAGTCGATGAGA, for which the TetR repression strength stood at 0.233. Then TCCCTTGGAGTAAATGAGA, with 0.502. Then TCCCTCGTAGTAAACGAGA, with 0.389. With TCCCGTAGAGTCTGAGAGA the figure was 0.219; with TCCCGAGAAGTTGGGGAGA, 0.131.

Consider TCCCCGCGAGTGAACGAGA, for which the TetR repression strength is 0.211. With TCCCACGAAGTGTGTGAGA the figure was 0.197; with TCCCTTCCAGTGATGGAGA, 0.307.

Sequence TCCCGGTGAGTACATGAGA registered a TetR repression strength of 0.00259. As to TCCCTACGAGTGGCGGAGA, the TetR repression strength is 0.0202.

The sequence TCCCGTCGAGTGCTGGAGA returned a TetR repression strength of 0.258.

Turning to TCCCGGTTAGTTTATGAGA, the TetR repression strength was 0.347. Then TCCCGTCGAGTGAGAGAGA, with 0.396. The sequence TCCCGTGAAGTGCCCGAGA gave a TetR repression strength of 0.132. Then TCCCGTGGAGTATGGGAGA, with 0.207; and TCCCGGCCAGTGTGTGAGA, with 0.172. Then TCCCGCTCAGTTGTCGAGA, with 0.262; and TCCCGGGGAGTTCGTGAGA, with 0.0864.

Consider TCCCTATCAGTGCTTGAGA, for which the TetR repression strength was found to be 0.701. With TCCCGGTTAGTCCTGGAGA the figure was 0.149; with TCCCAAATAGTGATTGAGA, 0.328; with TCCCTGTCAGTTAAGGAGA, 0.329. Then TCCCACTAAGTGAAGGAGA, with 0.308.

TCCCTTAGAGTGATAGAGA returned a TetR repression strength of 0.504. On to TCCCCTAGAGTGCGCGAGA, for which the TetR repression strength came to 0.901.

Turning to TCCCTCACAGTTACGGAGA, the TetR repression strength came out at 0.113. On to TCCCATGAAGTTAACGAGA, for which the TetR repression strength worked out at 0.104.

TCCCAACGAGTCAAGGAGA displayed a TetR repression strength of 0.352.

As to TCCCCGAGAGTTTCCGAGA, the TetR repression strength is 0.314. Then TCCCAGGGAGTTGCTGAGA, with 0.125; and TCCCCCTGAGTAGGTGAGA, with 0.311; and TCCCTATCAGTGACAGAGA, with 0.863. With TCCCTGAGAGTTGGCGAGA the figure was 0.198; with TCCCCGCGAGTTGGTGAGA, 0.0294; with TCCCGGCTAGTTTAGGAGA, 0.285.

The values above are taken from a collection of fitness landscapes (doi:10.1038/s41467-024-54723-y).
